The values that follow come from ChEMBL document CHEMBL4888484, “Replenishing the malaria drug discovery pipeline: Screening and hit evaluation of the MMV Hit Generation Library 1 (HGL1) against asexual blood stage Plasmodium falciparum ,using a nano luciferase reporter read-out” (2022).

The structures appear in SMILES notation. Out of some 150,000 compounds screened, about 540 (0.36%) showed an effect of 50% or more. The list shows a part of the results.

As a reminder, the % Inhibition is the drop in the measured response relative to a control, in per cent.

The test system of this test is Plasmodium falciparum. In words: Primary screen in NF54 nanoGlo assay, in single point, at 2uM, 72h; a lower Z score goes with more inhibition. The test is classed as functional, Erythrocyte. As to conditions: timepoint 72 hour.
For `Cc1cc(C)nc(O[C@H]2CCN(C(=O)CN3CCN(c4ccccc4)C3=O)C2)n1`, the “% Inhibition” value is -10% and the Z score is 1.49.
In the case of `CC(NC(C)c1nnnn1C)c1c(F)cccc1F` (configuration not stated), the “% Inhibition” value amounted to 2% and the Z score was -0.2.
The corresponding values for `C=CCCC(=O)N1CC(NC(=O)C(F)(F)F)CCC1C(F)(F)F` (configuration not stated) are 2% and -0.23.
As to `COc1ccc(F)c(CN2CCC[C@@]3(CCN(CCc4ccccc4)C3)C2=O)c1`, the “% Inhibition” value was -13% and the Z score was 2.26.
As to `CC(C)n1ccnc1CNC(=O)[C@]1(c2ccccc2)CC12CCCC2`, the “% Inhibition” value is -11% and the Z score is listed as 2.18.
As to `Cc1ccc(CNc2cnc3c(c2)COCC3)s1`, the “% Inhibition” value is listed as 2% and the Z score was -0.21.
Regarding `COCCn1c(C)cnc1C[C@H]1CCN(C(=O)Nc2ccc(C)c(C)c2)C1`, the “% Inhibition” value was 1% and the Z score is recorded as -0.16.
`COCCN(Cc1ccnn1C)C(=O)[C@@H]1COCCN1C`: the “% Inhibition” value was -10% and the Z score came to 1.38.
In the case of `CN(CCc1cccc2ccccc12)C(=O)C1CC(O)CN1` (configuration not stated), the “% Inhibition” value came to 4% and the Z score was -0.44.
The corresponding values for `COc1ccnc(NCCn2c(C)nc3ccccc32)n1` are 0% and 0.02.
In the case of `Cc1ccsc1CN(C)C(=O)c1ccccc1-c1nccn1C`, the “% Inhibition” value was -5% and the Z score came to 0.8.
As for `CC1CCN([C@H](NC(=O)c2ccc(C(C)(C)C)cc2)C(Cl)(Cl)Cl)CC1`, the “% Inhibition” value is -2% and the Z score stood at 0.34.
`C#CCOC[C@@H](O)CN(Cc1ccco1)Cc1c(-c2ccccc2)noc1N1CCOCC1`: the “% Inhibition” value is -6% and the Z score was 1.29.
For the molecule `COc1ccc(C(=O)N2CCC3(CC2)OC[C@@H](C(=O)NCc2ccco2)N3C(=O)c2ccccc2)cc1`, the “% Inhibition” value is reported as -10% and the Z score is recorded as 1.49.
Take `Cc1cc(NC(=O)c2nnn(-c3nccs3)c2C)no1`: the “% Inhibition” value is -17% and the Z score is listed as 3.18.
`O=C(CCOc1ccccc1)N1CC(=O)N(CC(F)(F)F)C1`: the “% Inhibition” value is -3% and the Z score came to 0.53.
For `Nc1ccc(N2C(=O)C3C(C2=O)[C@H]2CC[C@@H]3C2)cc1` (some centres not stated), the “% Inhibition” value is on record as -4% and the Z score stood at 0.71.
In the case of `CN(c1cc([C@H]2CCOC2)ncn1)C1CCCCC1`, the “% Inhibition” value is -9% and the Z score came out at 1.7.
Consider `Cc1ccccc1C(=O)N[C@@H]1CCCC[C@H]1NC(=O)C1CCN(C(=O)c2ccc3ccccc3c2)CC1`, for which the “% Inhibition” value is -4% and the Z score is 0.63.
Regarding `COc1ccc([C@@]2(N3CCCC3)Oc3ccccc3C(C#Cc3ccccc3)=C2C)cc1`, the “% Inhibition” value was -3% and the Z score amounted to 0.51.
Take `CC(NC(=O)N1CCCCC1)(C(F)(F)F)C(F)(F)F`: the “% Inhibition” value came out at 38% and the Z score is -1.36.
As for `NC(=O)Cc1ccc(Cl)cc1Cl`, the “% Inhibition” value was -10% and the Z score was 1.37.
For the molecule `O=C(NCCc1ccccc1)c1cccc(Oc2cc(-c3cccc(F)c3)ncn2)c1`, the “% Inhibition” value came to 8% and the Z score is given as -1.04.
The corresponding values for `CCOC1CCN(C(=O)c2ccc(-c3ccco3)nc2C)CC1` are -12% and 1.63.
With `O=C(c1ccnc(-c2ccccc2F)c1)N1CCCCC1`, the “% Inhibition” value is -9% and the Z score stood at 1.58.
Take `Cn1ccnc1C(=O)[C@H]1CCCN(C(=O)c2onc3c2CCCC3)C1`: the “% Inhibition” value was -4% and the Z score worked out at 0.71.
As to `CN(C[C@H]1COc2ccccc2O1)C(=O)c1cn(CC2CCCCC2)nn1`, the “% Inhibition” value was 7% and the Z score was -1.05.
In the case of `Cc1cccc(C(=O)Nc2cccc(N3C(=O)CC[C@@H]3C)c2)n1`, the “% Inhibition” value is recorded as -16% and the Z score is 1.58.
Take `CCCN(C[C@H]1CCCO1)C(=O)c1cc(NC(C)=O)cc2nc(-c3cccc(OC)c3)n(CC)c12`: the “% Inhibition” value was 0% and the Z score is 0.06.
The corresponding values for `O=S(=O)(NCCNS(=O)(=O)c1cccc(F)c1F)c1cccc(F)c1F` are 7% and -1.1.
As to `Cc1ccc(=O)n(CC(=O)N2CCCC[C@H]2c2cccc(C)c2C)n1`, the “% Inhibition” value came to 12% and the Z score is -2.31.
For `CC(C)Nc1nc2nonc2n2nnnc12`, the “% Inhibition” value was determined as 31% and the Z score is -3.95.
On the same counts, the results for `COc1ccc2c(c1)N1CCN(c3ccccc3OC)CC1C(C(=O)NCc1ccccc1F)C2` (configuration not stated) are -9% and 1.15.
As to `Cc1cc(=O)c(C(=O)N(CC2CC3C=CC2C3)C(C)C)c[nH]1` (configuration not stated), the “% Inhibition” value is given as -12% and the Z score is reported as 1.18.
For `COc1cc(CN(C)Cc2cnccn2)ccc1F`, the “% Inhibition” value is listed as -14% and the Z score turned out to be 1.4.
In the case of `Cc1ccccc1C1=NO[C@@H](CN(Cc2ccccc2)C(=O)NC(C)(C)C)C1`, the “% Inhibition” value was 9% and the Z score is listed as -1.24.
For the molecule `Cc1ncsc1C(=O)N1CCOC[C@H]1c1ncn(CC(F)(F)F)n1`, the “% Inhibition” value is -12% and the Z score was found to be 1.56.
For the molecule `Cc1nc(N(C)C)nc(-c2ccc(C(=O)NCc3ccno3)cc2)c1C`, the “% Inhibition” value is recorded as -8% and the Z score was 1.42.
Take `NC(=O)Nc1c(Cl)cccc1Cl`: the “% Inhibition” value was -12% and the Z score was determined as 1.71.
Turning to `Cn1c(C(=O)NCc2ccc(-c3ncon3)cc2)cc2c(Cl)cccc21`, the “% Inhibition” value was -5% and the Z score was 0.8.
`CN(CC(=O)N(C)C1CCC(c2ccccc2)CC1)c1cnccn1` (configuration not stated): the “% Inhibition” value amounted to 35% and the Z score is -5.12.
